Results on 19 variants are retold here after the RNAGym collection of RNA variant scans (doi:10.1073/pnas.2313332121).

This sample is rich in variants without activity.

Sequences and labels used below:
B1: TPR 5TU (parent)
chain: GGAUCUUCUCGAUCUAACAAAAAAGACAAAUCUGCCACAAAGCUUGAGAGCAUCUUCGGAUGCAGAGGCGGCAGCCUUCGGUGGCGCGAUAGCGCCAACGUUCUCAACUAUGACACGCAAAACGCGUGCUCCGUUGAAUGGAGUUUAUCAUG

This data set covers variants of B1. Put plainly: polymerase ribozyme fitness, log enrichment relative to wild type (log ratio); higher = more active; in vitro selection for triplet polymerase activity. A digest of the protocol:
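Mutant libraries were PCR-built and transcribed for each subunit of a heterodimeric triplet polymerase ribozyme and selected for one round in triplicate at −7 °C, frozen, before gel excision of extended constructs and streptavidin-bead capture. Input and output libraries were Illumina-sequenced, keeping genotypes with ≥10 input reads and ≥1 read per output. Fitness is a logarithmic ratio of genotype to wild-type enrichment, in base 2, using inverse-variance-weighted replicate averages.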
On to GGAUCUUCUCGAUCUAACAAAAUAGACAAAUCUGCCACAAAGUUUGAGAGCAUCUUCGAAUGCAGAGGCGGCAGCCUUCGGUGGCGCAAUAGCUCCAACGUUCUCAACUAUGACACGCAAAACGCGUGCUCCGAUGAAUGGAGUUUAUCAUG [A23U C43U G59A G88A G94U U134A], for which the “polymerase ribozyme fitness (log ratio)” value was at most -4.2. In the case of GGAUCUUCUCGAUCUAACAAAAUAGACAAAUCUGCCACAAAGCUUGAGAGCAUGUUCGGACGCAGAGGCGGCAGCCUUCGGUGUCGUAAUAGCGCCAACGUUCUCAACUAUGACACGCUAAACGCGUGCUCCGUUGAAUGGAGUUUAUCAUG [A23U C54G U61C G84U C87U G88A A119U], the “polymerase ribozyme fitness (log ratio)” value is at most -4.2.

In the case of GGAUCUUCUCGAUCUAACAAAAUAGACAAAUCUGGCACAAAGCUUGAGAGCAUCUUCGGAUGCAGCGGCGGCAGCAUUCGGUGGCGCCAUAGCGCCAACGUUCUCAACUAUGACACGCAAAACGCGUGCUCCGUUGAAUGGAGUUUAUCAUG [A23U C35G A66C C76A G88C], the “polymerase ribozyme fitness (log ratio)” value was at most -4.2.

In the case of GGAUCUUCUCGAUCUAACAAAAUAGACAAAUCUGCCACAAAGAUUGAGAGCAUCUACGGAUGCAGAGGCGGCAGCCUUCGGUGGCGCGAUAGCGCCAACGUUAUCAACUAUGACACGCAAAACGCGUACUCCGUUGAAUGGAGUUUAUCAUG [A23U C43A U56A C103A G128A], the “polymerase ribozyme fitness (log ratio)” value is at most -4.2.

Turning to GGAUCUUCUCGAUCUAACAAAAUAGACAAAUCUGCCACAAAGCUUGAGAGCAUCUUAGGAUGCAGAGGCGGCAGCAUUCGGUGGCGCGAUGGCGCCAAGGUUCUCAACUAUGACACGCAAAACGCGGGCUCCGUGGAAUGGAGUUUAUCAUG [A23U C57A C76A A91G C99G U127G U135G], the “polymerase ribozyme fitness (log ratio)” value is at most -4.2. With GGAUCUUCUCGAUCUAACAAAAUAGACAAAUCUGCCACAAAGCUUGAGAGCAUCUUCGGAUGCAGAGGCGGCAGCCUUCGGUGGCGUGAUAGCGCCAACGUUCUCAACUAUGACACGCAGAACGCGUGCUCCGUUGAAUGGAGUUUAUCAUG [A23U C87U A120G], the “polymerase ribozyme fitness (log ratio)” value was at most -4.2. As to GGAUCUUCUCGAUCUAACAAAAUAGACAAAUCUGCUACAAAGCUUGAGAGCACCUUCGGAUGCAGAGGCGGCAGCCUUCGGUGGCGCGAGAGCGCCAACGUUCUCAACUAUGAGACGCAAAACGCGUGCUCCGUUGAAUGGAGUUUAUCAUG [A23U C36U U53C U90G C114G], the “polymerase ribozyme fitness (log ratio)” value is at most -4.2. In the case of GGAUCUUCUCGAUCUAACAAAAUAGACAAAUCUGCCACAAAGCUUGAGAACAUCUUCGGAUGCAGAGGCGGCAGCCUUCGGUGGGGCGAUAGCGCCAACGUUCUCAACUAUGACACGCAAAACGCGUGCUCCGUUGAAUGGAGUUUAUCAUU [A23U G50A C85G G152U] it was at most -4.2. As for GGAUCUUCUCGAUCUAACAAAAUAGACAAAUCUGCCACAAAGCUUGAGAGCAUCUUCGGAUGCAGAGGCGGCAGACUUCGGUGGCGCGAUAGCGCCAACGUUCUCAACUACGACACGCAAAACGCGUGCUCCGUUGAAUGGAGUUUACCAUG [A23U C75A U111C U148C], the “polymerase ribozyme fitness (log ratio)” value is at most -4.2. Regarding GGAUCUUCUCGAUCUAACAAAAUAGACAAAUCUGCCACAAAGCUUGAGAGCAUAUUCGGAUGCAGAGGCGGCAGCCUUUGGUGGGGCGAUAGCGUCAACGUUCUCAACUAUGACACUCAAAAAGCGUGCUCCGUUGAAUGGAGUUUAUCAUG [A23U C54A C79U C85G C95U G117U C123A], the “polymerase ribozyme fitness (log ratio)” value was at most -4.2.

As for GGAUCUUCUCGAUCUAACAAAAUAGACAAAUCUGCCACAAAGCUUGACAGCAUCUUCGGAUGCAGAGGAGGCAGCCUUCGGUGGCGAGAUAGCGCCAACGUUCUCAACUAUGACACGCAAAACGCGUGCUCCGUUGAAUGGAGUUUAUCAUG [A23U G48C C69A C87A], the “polymerase ribozyme fitness (log ratio)” value was at most -4.2. In the case of GGAUCUUCUCGAUCUAACAAAAUAGACAAAUCUGCUACAAAGCAUGAGAGCAUCUUCGGAUGCAGAGGCGGCAGCCUUCGGUGGAGCGAUAGCGCCAACGUUCUCAACUAUGACACGCAAAACGCGUGCUCCGUUGAAUGGAGUUUAUCAUG [A23U C36U U44A C85A] it was at most -4.2.

Turning to GGAUCUUCUCGAUCUAACAAAAUAGACAAAUCUGCCACAAAGCUUGAGAACAUCUUCGGAUGCAGAGGCGGCAGCCUUCGGUGGCGCGAUAGCGUCAACGUUCUCAACUAUGACACGCAAAACGCGUGCUCCGUUGGAUGGAGUUUAUCAUG [A23U G50A C95U A137G], the “polymerase ribozyme fitness (log ratio)” value was at most -4.2. In the case of GGAUCUUCUCGAUCUAACAAAAUAGACAAAUCUGCCACAAAGCUUGAGAGUAUCUUCCGAUGCAGAGGCGGCAGCCUUCGGUGGCGCGAUAGCGCCAACGUUCUCAACUAUGACACGCAAAACGCGUGCUCCGUUGAAUGGAGUUUAUCAUG [A23U C51U G58C], the “polymerase ribozyme fitness (log ratio)” value was at most -4.2. On to GGAUCUUCUCGAUCUAACAAAAUAGACAAAUCUGCCACAAAACUUGAGAGCAUCUUCGGAUGCAGAGGCGGCAGCCUUCGGUGGAGCGAUAGCGUCAACGUUCUCAACUAUGACACGCAAAACGCGUGCUCCGUUGAAUGGAGUUUUUCAUG [A23U G42A C85A C95U A147U], for which the “polymerase ribozyme fitness (log ratio)” value was at most -4.2. Turning to GGAUCUUCUCGAUCUAACAAAAUAGACAAAUCUGCCACAAAGCUUGAGAGCAUCUUCGGAUGCAGAGGCGGCAGCAUUCGGUGGCGCGAUAGCGCCAACGUUCUCAACUAUGACACGGAAAACGCGUGCUCCGUUGAAUGGCGUUUAUUAUG [A23U C76A C118G A142C C149U], the “polymerase ribozyme fitness (log ratio)” value was at most -4.2. Regarding GGAUCUUCUCGAUCUAACAAAAUAGACAAAUCUGCCACAAAGCUUGAGAGCAUCUUCGGAUGCAGAGGCGGCAGCCUUCGGUGGAGCGAUAGCGCCAACGUUCUCAACUAUGACACGCAAAACGCGUGCUCCGUUGAAUGGAGUUUAUCAUG [A23U C85A], the “polymerase ribozyme fitness (log ratio)” value is at most -4.2. Consider GGAUCUUCUCGAUCUAACAAAAUAGACAAAUCUGCCACAAAGCUUGAGAGCAUCUUCGGAUGCAGAGGCGGCAGCCUUCGGUGGCGCGAUAGCGCUAACGUUCUCAACUAUGACACGCAAAACGCGCGCUCCGUUGAAUGGAGGUUAUCGUG [A23U C96U U127C U144G A150G], for which the “polymerase ribozyme fitness (log ratio)” value is at most -4.2.

For GGAUCUUCUCGAUCUAACAAAAUAGACAAAUCUGCCACAAAGCUUGAGAGCAUCUUCGGAUGCAGAGGCGGCAGCUUUCGGUGGCGCGAUAGCCCCAACGUUCUCAACUAUGACACGCAAAACGUGUGCUCCGUUGAAUGGAGUUUAUCAUG [A23U C76U G94C C125U], the “polymerase ribozyme fitness (log ratio)” value was at most -4.2.
